73 compounds from PubChem BioAssay AID1240 (Sanford-Burnham Center for Chemical Genomics, 2008) can be followed below.

Hit rate of the full screen: of about 50,000 compounds, about 800 (1.6%) showed an effect of 50% or more. The list shows a part of the results.

In the assay the target is Bcl-2-like protein 10 (Homo sapiens) (UniProt Q9HD36). Briefly: TR3 peptide-Bcl-B binding displacers, biochemical primary FP assay, phenotype converters (AID 1240).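 Note: 0% = Bcl-B with tracer peptide and DMSO and 100% = tracer peptide lacking Bcl-B.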 The conditions noted are these: GST-Bcl-B / FITC-TR3 peptide fluorescence polarization; stronger effect = higher value; compound at 3.75 mg/L. (In fluorescence polarisation assays a small probe gives low polarisation when free and higher when bound to something large.)
Chain of UniProt Q9HD36 (Q9HD36 whole entry, looked up): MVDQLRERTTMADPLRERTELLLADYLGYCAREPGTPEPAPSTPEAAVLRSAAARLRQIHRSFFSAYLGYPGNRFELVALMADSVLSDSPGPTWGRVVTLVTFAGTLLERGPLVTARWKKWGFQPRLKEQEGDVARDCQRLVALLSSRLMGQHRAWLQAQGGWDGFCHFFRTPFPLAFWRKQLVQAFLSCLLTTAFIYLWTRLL
For the compound `CN1CCN(c2ccc(/C=c3\sc4nc5ccccc5n4c3=O)cc2[N+](=O)[O-])CC1`, the displacement is -6.3%.
Then `Cc1ccc(/C(O)=C2/C(=O)C(=O)N(CCCCCC(=O)O)C2c2ccccc2)cc1` (stereo not drawn), with -10.3%.
For the compound `COc1ccc(OCC(=O)NCCOc2ccccc2)cc1`, the displacement is -0.8%.
For `CCCCOC(=O)c1cccc(NC(=O)c2ccc(Cl)cc2)c1`, the displacement is -2.5%.
Then `CC(C)Oc1nc(-c2ccc(Br)cc2)nc2ccccc12`, with 13.9%.
For the compound `Cc1ccc(C(=O)NC23CCC4CC(CC(C4)C2)C3)cc1`, the displacement turned out to be 9.1%.
In the case of `CCOC(=O)C(=Cc1ccc(OCc2ccc([N+](=O)[O-])cc2)c(OC)c1)C(=O)OCC`, the displacement was determined as 3.9%.
The value for `CCOC(=O)C1=C(O)CSC1=Nc1ccc(C)cc1` was -15.6%.
Then `CCC(Oc1ccccc1)C(=O)N1CCN(C(c2ccccc2)c2ccccc2)CC1` (stereo not drawn), with -9.6%; and `Cc1nnc(Sc2nc(Sc3nnc(C)s3)nc(N3CCN(C)CC3)n2)s1`, with 9.7%.
The value for `COC(=O)C1=C(C)N(C)C(C)=C(C(=O)OC)C1c1ccc(C)s1` was 0.5%.
For `CS(=O)(=O)N(Cc1ccccc1)c1ccccc1C(=O)Nc1cccc(C(F)(F)F)c1`, the displacement was -2.9%.
The value for `OC(CNCc1ccccc1)(c1ccc(Cl)cc1)c1ccc(Br)cc1` (stereo not drawn) was -6.7%; that for `COc1ccc(Cl)cc1C(=O)NCCN1CCOCC1` was -0.2%.
For the compound `CCOc1ccc(S(=O)(=O)N(CC(=O)NC)c2ccc(C)cc2)cc1`, the displacement came out at 1.7%.
Take `Cn1cnc2cc(NCc3ccc(Cl)cc3)ccc21`: the displacement was found to be 5.2%.
Then `C#CCOc1ccc(/C=C2\C(=O)NC(=O)N(c3cc(C)cc(C)c3)C2=O)cc1OCC`, with -36.6%.
Turning to `CC12CC3CC(C)(C1)CC(C(=O)Nc1ccc([N+](=O)[O-])cc1)(C3)C2`, the displacement was found to be 6.6%.
Turning to `CCN1C(=O)/C(=C\c2cccc(OCc3cccc4ccccc34)c2)SC1=S`, the displacement worked out at 4.6%.
`NC(=O)c1cc(NS(=O)(=O)c2ccc(F)cc2)ccc1Cl`: the displacement is -1.2%.
Then `COc1ccccc1/C=N/Nc1cc(-c2ccccc2)nc(C)n1`, with -9.7%.
Then `C=CCSc1nc2ccccc2n1C(=O)c1ccc2c(c1)OCO2`, with -11%; and `O=C1C(=O)N(CCO)C(c2cccc(F)c2)/C1=C(\O)c1ccccc1` (stereo not drawn), with 1.7%.
On to `O=C1C2C(C(=O)N1/N=C/C=C/c1ccccc1)C1C=CC2C12CC2` (stereo not drawn), for which the displacement came out at 8.4%.
Then `O=C(Nc1ccc(F)cc1)c1ccc(Br)c(S(=O)(=O)N2CCOCC2)c1`, with -14.3%; and `CC1(C)SCC2C(=O)N3C(CSC3(C)C)C(=O)N21` (stereo not drawn), with -0.3%.
Take `CCc1nnc(NC(=O)C2CCCC2)s1`: the displacement is -7.8%.
For `Cc1ccc(NC(=O)COc2ccc3ccccc3c2)cc1`, the displacement came to 1.7%.
Then `O=C(Nc1ccccn1)c1cc2cc(Br)ccc2oc1=O`, with 13.6%.
Then `Cc1cccc(-n2c(C)cc(C=O)c2C)c1`, with 11.9%.
The value for `Cc1cc(C(F)(F)F)c(C#N)c(SCC(N)=O)n1` was -2.9%; that for `Cc1ccc(-c2nnc(NC(=O)Nc3ccc(Cl)cc3)s2)cc1` was 0.6%.
In the case of `COC(=O)c1ccc(/C=C2\SC(=S)N(NC(=O)c3ccccc3C)C2=O)cc1`, the displacement is -5.8%.
The value for `COc1cc(C(=O)N2CCN(C3CC4CCC3C4)CC2)cc(OC)c1OC` (stereo not drawn) was 8.1%; that for `COc1cc(/C=N/Nc2nnc(C)c(=O)[nH]2)ccc1O` was 6.5%.
Then `O=S(=O)(c1ccc2c(c1)OCCO2)N1CCCCCC1`, with 6.3%; and `COc1cccc(/C=C2/C(=O)NN(c3ccc(C)cc3)C2=O)c1O`, with 21.3%.
The value for `COc1ccc(NC(=O)c2ccc(Br)o2)cc1Cl` was 17.1%.
`CCn1c2ccccc2c2cc(NC(=O)CC(C)=O)ccc21`: the displacement is -0.3%.
For `O=C(O)CCN1C(=O)c2ccc(S(=O)(=O)c3ccc(C(=O)O)cc3)cc2C1=O`, the displacement is 5%.
Then `CCN=C(NCC)SC1CC(=O)N(C)C1=O` (stereo not drawn), with -4.2%.
Then `O=S(=O)(c1ccc2c(c1)Cc1cc(S(=O)(=O)N(CCO)CCO)ccc1-2)N(CCO)CCO`, with 9.2%.
The value for `O=c1cc(C(F)F)oc2c1ccc1ccccc12` was -5.4%; that for `c1csc(-c2nc3sc(-c4cccs4)nc3s2)c1` was 3%.
As to `COC(=O)CN(c1ccc(Cl)cc1Cl)S(=O)(=O)c1ccccc1`, the displacement is 3.2%.
The value for `COc1ccc(C(=O)SC2=NCCS2)cc1` was -6.9%; that for `CCCCOc1ccc2nsnc2c1Cl` was -3.1%; that for `CCc1ccc(/C=C2\SC(=S)N(CC(=O)N3CCOCC3)C2=O)cc1` was -7.1%.
Then `CCN(CC)C(=O)c1c(F)cccc1F`, with -3.4%; and `CC(=O)NC1=NC(=O)/C(=C\c2sccc2C)S1`, with 98.2%.
The value for `CC(C)CC(=O)NC(NC(=S)Nc1sc2c(c1C#N)CCCC2)C(Cl)(Cl)Cl` (stereo not drawn) was 5.5%; that for `CC(C)(C)c1cc(N2C(=O)C(=O)/C(=C(\O)c3ccccc3)C2c2ccc(Cl)cc2)no1` (stereo not drawn) was -13.1%.
For the compound `COc1cc(/C=N/Nc2nn[nH]n2)cc2c1OCO2`, the displacement is 12.7%.
The value for `Cc1cc(/C=C2\SC(=O)NC2=O)c(C)n1C1CCCCC1` was 8.2%; that for `CC(C)(C)c1ccc(C(=O)NNC(=O)c2ccc([N+](=O)[O-])cc2Cl)cc1` was -12%.
The value for `Cc1cc(-n2cccn2)nc(-c2ccc(Br)cc2)n1` was -7.1%; that for `CCCCOc1ccc(-c2cnc(S(C)(=O)=O)nc2)cc1` was 2.2%; that for `O=C(N/C(=C\c1cccnc1)C(=O)N1CCOCC1)c1cccc(Br)c1` was -5.9%.
Then `O=C(c1cccc(Cl)c1)N1CCN(c2ccc([N+](=O)[O-])cc2Cl)CC1`, with -1%; and `Nc1sc2c(c1C(=O)Nc1ccc(Cl)cc1)CCCC2`, with 9.6%.
In the case of `O=C(NC(=S)N1CCCCCC1)c1ccc(Br)cc1`, the displacement is 3.1%.
Then `Cc1cc(C)cc(NC(=O)Cn2c(C)c(C=O)c3ccccc32)c1`, with -40.5%.
For `CNC(=O)c1c(NC(=O)c2cccs2)sc2c1CCCC2`, the displacement is 7.3%.
As for `CCCCCCCCc1nnc(NC(=O)CC)s1`, the displacement is -2.8%.
Then `Cc1cc(C(F)(F)F)nn1CC(=O)Nc1ccccc1C(F)(F)F`, with 0.2%; and `O=C(c1cc2ccccc2oc1=O)N1CCN(c2ccc([N+](=O)[O-])cc2)CC1`, with -3.9%; and `CCOc1ccc(N(CC(=O)NCCc2ccc(OC)c(OC)c2)S(=O)(=O)c2ccc(Br)cc2)cc1`, with 5.3%.
Then `Clc1ccc(-c2nnc(-c3ccc4c(c3)OCO4)o2)c(Cl)c1`, with 12.6%.
Then `O=C(Nc1nc2ccc3ccccc3c2s1)c1cccc(Br)c1`, with 4.3%.
For the compound `O=C(NCCC1=CCCCC1)c1cc2ccccc2oc1=O`, the displacement is -4.9%.
Then `N#Cc1c(N)c(C(=O)c2ccccc2)n2c1CCCC2`, with 12.7%; and `CCCC(=O)Nc1cccc(-c2nc3cc(C)ccc3o2)c1`, with -8%; and `Cc1cc([N+](=O)[O-])ccc1-c1cc2ccccc2oc1=O`, with 9.6%.
